To fix the notation:
B1: TEV protease; numbered along this chain (parent)
chain: MGESLFKGPRDYNPISSSICHLTNESDGHTTSLYGIGFGPFIITNKHLFRRNNGTLVVQSLHGVFKVKDTTTLQQHLVDGRDMIIIRMPKDFPPFPQKLKFREPQREERICLVTTNFQTKSMSSMVSDTSCTFPSGDGIFWKHWIQTKDGQCGSPLVSTRDGFIVGIHSASNFTNTNNYFTSVPKNFMELLTNQEAQQWVSGWRLNADSVLWGGHKVFMVKPEEPFQPVKEATQL

Variants of B1 are the subject of the experiment. The experiment in a line: raw area under fraction-flipped curve 0-4 h after induction (AUC4h, not background-subtracted), DNA-recorder readout of cleavage of the substrate (dimensionless); higher = more cleavage of the substrate by the protease variant. As to conditions: temperature: 34 °C; time window: 0-4 h after rhamnose induction.

This note sets out measurements from the supplement of paper PMC12217912.

Some of the results follow. Sequences were assembled here from the parent chain. Values near 0.05 are background.
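Note: Bxb1 expression induced with 0.2% (w/v) L-rhamnose at OD600 near 0.5, cultures sampled hourly, flipped fraction per protease–substrate barcode pair counted by paired-end Illumina sequencing.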

Turning to MGESLFKGPRDYNPISSSICHLTNESDGHTTSLYGIGFGPFIITNKHLFRRNNGTLVVQSLHGVFKVKDTTTLQQHLVDGRDMIIIRMPKDFPPFPQKLKFREPQREERICLVTTNRQTKSMSSMVSDTSCTFPSGDGIFWKHWIQTKDGQCGSPLVSTRDGFIVGIHSASNFTNTNNYFTSVPKNFMELLTNQEAQQWVSGWRLNADSVLWGGHKVFMVKPEEPFQPVKEATQL [F117R], the “area with substrate EDLYFQS” value is 0.0813, the “area with substrate EELYFQS” value was 0.14, the “area with substrate EHLYFQS” value amounted to 0.105 and the “area with substrate ELLYFQS” value was 0.101. Moreover, the “area with substrate EMLYFQS” value stood at 0.115, the “area with substrate EPLYFQS” value was found to be 0.117, the “area with substrate ETLYFQS” value was 0.12 and the “area with substrate EWLYFQS” value worked out at 0.0909. Further, the “area with substrate EYLYFQS” value came out at 0.13.

Turning to MGESLFKGPRDYNPISSSICHLTNESDGHTTSLYGIGFGPFIITNKHLFRRNNGTLVVQSLHGVFKVKDTTTLQQHLVDGRGMIIIRMPKDFPPFPQKLKFREPQREERICLVTTNFQTKSMSSMVSDTSCTFPSGDGIFWKHWIQTKDGQCGSPLVSTRDGFIVGIHSASNFTNTNNYFTSVPKNFMELLTNQEAQQWVSGWRLNADSVLWGGHKVFMVKPEEPFQPVKEATQL [D82G], the “area with substrate EDLYFQS” value was found to be 0.0215, the “area with substrate EILYFQS” value is 0.0546, the “area with substrate EKLYFQS” value stood at 0.0416 and the “area with substrate EMLYFQS” value was determined as 0.0563. Further, the “area with substrate EPLYFQS” value came to 0.065, the “area with substrate EQLYFQS” value worked out at 0.0611, the “area with substrate EVLYFQS” value is 0.0468 and the “area with substrate EWLYFQS” value was found to be 0.054.

Turning to MGESLFKGPRDYNPISSSICHLTNESDGHTTSLYGIGFGPFIITNKHLFRRNNGTLVVQSLHGVFKVKDTTTLQQHLVDGRDMIIIRMPKDFPPFPQKLKFREPQREERICLVTTNFQTKSMSSMVSDTSCTFPSGYGIFWKHWIQTKDGQCGSPLVSTRDGFIVGIHSASNFTNTNNYFTSVPKNFMELLTNQEAQQWVSGWRLNADSVLWGGHKVFMVKPEEPFQPVKEATQL [D137Y], the “area with substrate EDLYFQS” value came out at 0.176, the “area with substrate EELYFQS” value came to 0.104, the “area with substrate EFLYFQS” value was 0.0952 and the “area with substrate EGLYFQS” value worked out at 0.0763. The “area with substrate EKLYFQS” value was 0.104, the “area with substrate ELLYFQS” value is 0.113, the “area with substrate ERLYFQS” value was found to be 0.0907 and the “area with substrate EWLYFQS” value came out at 0.0999. Besides, the “area with substrate EYLYFQS” value amounted to 0.106.

As to MGESLFKGPRDYNPISSSICHLTNESDGHTTSLYGIGFGPFIITNKHLFRRNNGTLVVQSLRGVFKVKDTTTLQQHLVDGRDMIIIRMPKDFPPFPQKLKFREPQREERICLVTTNFQTKSMSSMVSDTSCTFPSGDGIFWKHWIQTKDGQCGSPLVSTRDGFIVGIHSASNFTNTNNYFTSVPKNFMELLTNQEAQQWVSGWRLNADSVLWGGHKVFMVKPEEPFQPVKEATQL [H62R], the “area with substrate EDLYFQS” value was determined as 0.114, the “area with substrate EELYFQS” value amounted to 0.106, the “area with substrate EILYFQS” value was found to be 0.0911 and the “area with substrate EKLYFQS” value amounted to 0.157. Further, the “area with substrate EMLYFQS” value is 0.0794, the “area with substrate ETLYFQS” value stood at 0.0988 and the “area with substrate EVLYFQS” value is 0.115.

As to MGESLFKGPRDYNPISSSICHLTNESDGHTTSLYGIGFGPFIITNKHLFRRNNGTLVVQSLHGVFKVKDTTTLQQHLVDGRDMIIIRMPKDFPPFPQKLKFREPQREERICLVTTNFQTKSMSSMVSDTSCTFPSGDGIFWKHWIQTKDGQCGSVLVSTRDGFIVGIHSASNFTNTNNYFTSVPKNFMELLTNQEAQQWVSGWRLNADSVLWGGHKVFMVKPEEPFQPVKEATQL [P155V], the “area with substrate EDLYFQS” value turned out to be 0.0954, the “area with substrate EELYFQS” value was found to be 0.129, the “area with substrate EGLYFQS” value was 0.0534 and the “area with substrate EHLYFQS” value was 0.0959. Also, the “area with substrate EQLYFQS” value came out at 0.118, the “area with substrate ERLYFQS” value came out at 0.048, the “area with substrate ESLYFQS” value turned out to be 0.0921 and the “area with substrate EVLYFQS” value is 0.0741. Besides, the “area with substrate EWLYFQS” value amounted to 0.0923.

As for MGESLFKGPRDYNPISSSICHLTNESDGHTTSLYGIGFGPFIITNKHLFRRNNGTLVVQSLHGVFKVKDTTTLQQHWVDGRDMIIIRMPKDFPPFPQKLKFREPQREERICLVTTNFQTKSMSSMVSDTSCTFPSGDGIFWKHWIQTKDGQCGSPLVSTRDGFIVGIHSASNFTNTNNYFTSVPKNFMELLTNQEAQQWVSGWRLNADSVLWGGHKVFMVKPEEPFQPVKEATQL [L77W], the “area with substrate EDLYFQS” value is 0.0931, the “area with substrate EHLYFQS” value worked out at 0.0771, the “area with substrate EILYFQS” value turned out to be 0.0651 and the “area with substrate EMLYFQS” value worked out at 0.138. For the same variant, the “area with substrate EPLYFQS” value is 0.0677, the “area with substrate ERLYFQS” value was found to be 0.0693, the “area with substrate ESLYFQS” value worked out at 0.0217 and the “area with substrate ETLYFQS” value was determined as 0.0774. Further, the “area with substrate EVLYFQS” value was determined as 0.0672 and the “area with substrate EWLYFQS” value worked out at 0.0688.

For the variant MGESLFKGPRDYNPISSSICHLTNESDGHTTSLYGIGFGPFIITNKHLFRRNNGTLVVQSLHGVFKVKDTTTLQQHLVDGRDMIIIRMPKDFPPFPQKLKFREPQREERICLVTFNFQTKSMSSMVSDTSCTFPSGDGIFWKHWIQTKDGQCGSPLVSTRDGFIVGIHSASNFTNTNNYFTSVPKNFMELLTNQEAQQWVSGWRLNADSVLWGGHKVFMVKPEEPFQPVKEATQL [T115F], the “area with substrate EDLYFQS” value came out at 0.118, the “area with substrate EELYFQS” value is 0.13, the “area with substrate EHLYFQS” value is 0.112 and the “area with substrate EILYFQS” value was determined as 0.0796. Moreover, the “area with substrate EKLYFQS” value is 0.0739, the “area with substrate ELLYFQS” value amounted to 0.0777, the “area with substrate EMLYFQS” value is 0.108 and the “area with substrate EPLYFQS” value was found to be 0.112. The “area with substrate EQLYFQS” value was 0.112, the “area with substrate ESLYFQS” value was determined as 0.106 and the “area with substrate ETLYFQS” value was 0.081.

For the variant MGESLFKGPRDYNPISSSICHLTNESDGHTTSLYGIGFGPFIITNKHLFRRNNGTLVVQSLHGVFKVKDTTTLQQHLVDGRDMIIIRMPKDFPPFPQKLKFREPQREERICLVTTNFQTKSMSIMVSDTSCTFPSGDGIFWKHWIQTKDGQCGSPLVSTRDGFIVGIHSASNFTNTNNYFTSVPKNFMELLTNQEAQQWVSGWRLNADSVLWGGHKVFMVKPEEPFQPVKEATQL [S124I], the “area with substrate EDLYFQS” value amounted to 0.113, the “area with substrate EELYFQS” value came out at 0.102, the “area with substrate EFLYFQS” value turned out to be 0.0842 and the “area with substrate EGLYFQS” value was 0.0027. Moreover, the “area with substrate EHLYFQS” value came out at 0.132, the “area with substrate EKLYFQS” value amounted to 0.107, the “area with substrate ELLYFQS” value was found to be 0.0797 and the “area with substrate EMLYFQS” value worked out at 0.102. Also, the “area with substrate EPLYFQS” value is 0.1, the “area with substrate ESLYFQS” value is 0.103, the “area with substrate EVLYFQS” value worked out at 0.0679 and the “area with substrate EWLYFQS” value was 0.105.

Consider MGESLFKGPRDYNPISSSICHLTNESDGHTTSLYGIGFGPFIITNKHLFRRNNGTLVVQSLHGVFKVKDTTTLQQHLVDGRDMIIIRMPKDFPPFPQKLKFREPQREERICLVTTNFQTKSMSTMVSDTSCTFPSGDGIFWKHWIQTKDGQCGSPLVSTRDGFIVGIHSASNFTNTNNYFTSVPKNFMELLTNQEAQQWVSGWRLNADSVLWGGHKVFMVKPEEPFQPVKEATQL [S124T], for which the “area with substrate EDLYFQS” value stood at 0.117, the “area with substrate EELYFQS” value worked out at 0.12, the “area with substrate EFLYFQS” value was 0.0976 and the “area with substrate EGLYFQS” value amounted to 0.0954. Further, the “area with substrate EHLYFQS” value was 0.0864, the “area with substrate EILYFQS” value worked out at 0.0732, the “area with substrate ELLYFQS” value is 0.0856 and the “area with substrate EMLYFQS” value stood at 0.0953. Besides, the “area with substrate EQLYFQS” value turned out to be 0.0945, the “area with substrate ESLYFQS” value is 0.118, the “area with substrate EVLYFQS” value is 0.111 and the “area with substrate EYLYFQS” value amounted to 0.123.

MGESLFKGPRDYNPISSSICHLTNESDGHTTSLYGIGFGPFIITNKHLFRRNNGTLVVQSLHGVFKVKDTTTLQQHLVDGRDMIIIRMPKDFPPFPQKLKFREPQREERICLVTTNFQTKPMSSMVSDTSCTFPSGDGIFWKHWIQTKDGQCGSPLVSTRDGFIVGIHSASNFTNTNNYFTSVPKNFMELLTNQEAQQWVSGWRLNADSVLWGGHKVFMVKPEEPFQPVKEATQL [S121P]: the “area with substrate EDLYFQS” value came to 0.143, the “area with substrate EILYFQS” value was found to be 0.123, the “area with substrate ELLYFQS” value came out at 0.0829 and the “area with substrate EMLYFQS” value was determined as 0.116. The “area with substrate EPLYFQS” value was found to be 0.144, the “area with substrate ERLYFQS” value stood at 0.104, the “area with substrate ESLYFQS” value was found to be 0.0887 and the “area with substrate EWLYFQS” value turned out to be 0.0844.
